The whole screen tested about 46,000 compounds, of which about 60 (0.1%) were called active. About 3% were inconclusive and are not listed. The call rests on the fitted dose curve; in most records, active means well fitted inhibition curve with a large enough effect; inconclusive means small, poorly fitted or top-dose-only effect; inactive means no such curve, though single readings can be large or run the other way. The list shows a part of the results.
Test: Primary qHTS assay for Inhibitors of ovarian cancer metastasis using an organotypic tumor microenvironment (TME) model. Further: nearly all actives have a fitted effect of over 65% in size.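 On activity change, negative = inhibition: plate controls were DMSO wells for no effect and tomatine positive control wells for full effect.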
Details: SKOV3ip1-GFP adhesion/invasion on 3D omental model, fluorescence; series mostly up to 45.8 µM; activity change, negative = inhibition: at the top concentration
Summary of the method: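 Primary human omental fibroblast/mesothelial 3D culture pre-formed 48 h. SKOV3ip1-GFP cells added with compounds (0.36-46 umol/L), incubated 2 h RT/16 h 37 C, fixed; GFP cells quantified at 488/509 nm.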

Activity change, negative = inhibition, inactive:
CCc1ccc(-c2cn3c(n2)sc2cc(C(=O)NCCc4ccc(OC)cc4OC)ccc23)cc1 -4.62%, COc1ccccc1NC(=O)Cn1c(=O)n(Cc2ccc3c(c2)OCO3)c(=O)c2oc3ccccc3c21 -5.58%, O=C(c1noc2c1CCCCC2)N1CCN(c2ccc(Cl)cc2)CC1 8.63%, CN(Cc1ccccc1)C(=O)CN1C(=O)CSc2ccc(S(=O)(=O)N3CCOCC3)cc21 4.4%, COc1ccc(OC)c(S(=O)(=O)Nc2cc3c(cc2C)n(C)c(=O)c(=O)n3C)c1 2.19%, Cc1ccc(NC(=O)NCc2ccc3c(c2)CCN3C(=O)c2ccccc2)c(Cl)c1 -23.8%, Cc1ccc(NC(=O)c2nn(C)c3c2CS(=O)(=O)c2ccccc2-3)c(Cl)c1 -7.1%, CCc1c(C)sc2c1CCN(C(=O)Nc1cc(OC)c(OC)c(OC)c1)C2c1ccccc1 (stereo unspecified) 3.03%, COc1cccc(C(=O)NC2(C(F)(F)F)C(=O)Nc3c2c(=O)[nH]c(=O)n3-c2ccc(C)cc2)c1 (stereo unspecified) -15.8%, O=C(CCCCCn1c(=O)c2sccc2n(CC(=O)Nc2cccc(Cl)c2)c1=O)NCc1ccc2c(c1)OCO2 1.81%, COc1ccc(-c2nc3c(c(SCC(=O)Nc4ccc(C(=O)O)cc4)n2)Cc2ccccc2O3)cc1 -19.1%, Oc1c(C(c2ccccc2)N2CCC3(CC2)OCCO3)sc2nc(-c3ccco3)nn12 (stereo unspecified) -3.72%, Cn1c(=O)c2c(-c3ccccc3)n3c(c2n(C)c1=O)C(c1ccccc1[N+](=O)[O-])Nc1ccccc1-3 (stereo unspecified) 1.88%, Cn1c(=O)c2c(c3ccccc31)OC(=O)CC2c1ccc(C(F)(F)F)cc1 (stereo unspecified) 1.57%, O=C(c1ccc2c(c1)N(Cc1ccccc1F)C(=O)c1ccccc1S2(=O)=O)N1CCOCC1 13.4%, CCCN(CCC)CCCNC(=O)Cn1cnc2sc(C)c(S(=O)(=O)N3CCCCC3)c2c1=O -1.88%, O=C(COC(=O)c1cc(-c2cccs2)nc2ccccc12)c1ccccc1 -2.82%, CCOC(=O)c1oc2ccc(S(=O)(=O)n3nc(-c4ccccc4OC)cc3N)cc2c1C 14.2%, COc1ccc(C2=NC3(CCCCC3)N(CC(=O)Nc3ccc(C(C)C)cc3)C2=O)cc1 12.2%, CCOCCCNC(=O)c1ccc2nc(CCc3ccccc3)oc2c1 -3.22%, COc1ccc(-c2cc(C(=O)Oc3ccccc3)c3cc(C)ccc3n2)cc1 -17.7%, Cc1ccc(-c2nc3nc(C)cc(N4CCN(c5cc(Cl)ccc5C)CC4)n3n2)cc1 -0.349%, Cc1ccc2nc(N(Cc3cccnc3)C(=O)Cc3ccccc3)sc2c1 3.47%, COc1cccc(CN2CCc3nc(Nc4ccc5c(c4)OCCO5)ncc3C2)c1 -9.6%, CC[C@H](C=C[C@@H](C)[C@H]1CC[C@H]2[C@@H]3CC=C4C[C@@H](O)CC[C@]4(C)[C@@H]3CC[C@]12C)C(C)C 0.676% [at 23.2 µM], COc1ccc(C(=O)CN2CCN(S(=O)(=O)c3ccc(C(C)C)cc3)CC2)cc1 -2.19%, CC1CCN(c2ncnc3c2cnn3-c2ccc(F)cc2)CC1 -24.8%, Fc1ccc(NCc2cccn2-c2nnc(N3CCOCC3)s2)cc1 -21.9%, Cc1ccccc1Cn1c(SCc2ccc(C(=O)NC(C)c3ccccc3)cc2)nc2ccncc21 (stereo unspecified) 9%, CCOC(=O)c1ccccc1NC(=O)Cn1ncc2c([nH]c3ccccc32)c1=O -1.12%, COc1cccc(C2CC(=O)Nc3cc4c(cc32)OCCO4)c1OC (stereo unspecified) -9.85%, CCc1ccccc1NC(=O)CCn1nc(C)c2c(C)n(-c3ccccc3)nc2c1=O 3.72%, CCCCC(C)(C)[C@H](O)C=C[C@H]1[C@H](O)CC(=O)[C@H]1CC=CCCCC(=O)O -15.4%, CCc1ccc(-c2nc(CN3CCC(C(=O)NCCc4ccc(Cl)cc4)CC3)c(C)o2)cc1 4.55%, COC(=O)C1=C(c2ccccc2)c2ccccc2S(=O)(=O)N1CC(=O)Nc1cccc(C(C)=O)c1 9.85%, Cc1ccc(CCNC(=O)c2ccc(NC(=O)N3CC(C)Sc4ccccc43)cc2)cc1 (stereo unspecified) -6.61%, CC1(C)O[C@H]2CC(=O)OC[C@]23[C@H]2CC[C@@]4(C)[C@H](c5ccoc5)OC(=O)[C@H]5O[C@]54[C@]2(C)C(=O)C[C@@H]13 1.77%, O=C1CSC(=O)N1C(CCc1ccncc1)COc1ccc(-c2cccc([N+](=O)[O-])c2)cc1 (stereo unspecified) -0.889%, CCc1ccc(OCC(=O)N(Cc2ccco2)Cc2ccccc2Cl)cc1 -6.62%, CC1=C(C(=O)Nc2ccccc2)C(c2ccc(C(=O)O)cc2)n2ncnc2N1 (stereo unspecified) 4.18%, CCOc1ccc(Nc2nc3c(S(=O)(=O)c4cccc(Cl)c4)nnn3c3ccsc23)cc1 1.75%, CCOc1ccc(NC(=O)c2cnn(-c3ccc(C)c(C)c3)c2C2CCN(C(=O)OC(C)(C)C)CC2)cc1 5.58%, COc1ccccc1N1CCN(C(=O)c2cn(C)c3ccc(S(=O)(=O)N(C)C4CCCCC4)cc3c2=O)CC1 -1.84%, Cc1ccc(C(=O)NCC(c2ccc3c(c2)OCO3)N2CCN(C)CC2)cc1C (stereo unspecified) 1.38%, CCOC(=O)c1cnc2c(ccc3ccccc32)c1Nc1cccc(C(F)(F)F)c1 2.82%, Cc1cc(C(F)F)n2nc(C(=O)Nc3cccc(Cl)c3C)nc2n1 -7.07%, Cc1ccccc1OCC(=O)Nc1ccccc1C(=O)OCc1cc(=O)n2ccsc2n1 -5.41%, Cc1nn(CCCC(=O)NCCc2ccc(Cl)cc2)c(=O)c2c1sc1ccccc12 4.52%, CCOc1cc(C(=O)NCCc2csc3nc(-c4ccccc4F)nn23)cc(OCC)c1OCC 1.32%, N=c1c(C(=O)NCC2CCCO2)cc2c(=O)n3ccccc3nc2n1CCCO (stereo unspecified) 14.8%, CCOc1ccc(CNC(=O)C2CCN(S(=O)(=O)c3cn(C)cn3)CC2)cc1 14.3%, O=C(CN1C(=O)CCn2nc(-c3ccccc3)cc21)NCc1ccc(F)cc1 0.697%, O=C(Nc1ccc(-n2nncc2-c2ccccc2)cc1)c1cccc(F)c1 1.37%, Cn1ncc2c(NCc3ccccc3Cl)nc(NCCO)nc21 3.5%, COc1ccc2c(c1)c1c(c(=O)n(-c3ccccc3)c(=O)n1CC(=O)NCCC1=CCCCC1)n2C 5.67%, COc1cc(CN2CCc3nc(N4CCN(c5ncccn5)CC4)ncc3C2)cc(OC)c1OC 14.4%, Cn1nc(C(=O)NCc2cccc(Cl)c2)c2c1-c1ccccc1S(=O)(=O)C2 9.68%, Cc1nc2ccccc2n2c(-c3ccccc3)c3c(=O)n(C)c(=O)n(C)c3c12 3.73%, COc1cccc(CNC(=O)CCn2nc(C)c3c(C)n(-c4ccccc4)nc3c2=O)c1 -3.98%, Cc1c(Cl)cccc1NC(=O)CCS(=O)(=O)c1ccc2c(c1)oc(=O)n2C 0.828%, COc1cccc(Cn2c(CNC(=O)CCc3ccccc3)nc3cccnc32)c1 -0.346%, Cc1ccc(NC(=O)C(=O)NCCc2sc(-c3ccc(Cl)cc3)nc2C)cc1C -13.7%, COc1cccc(C(=O)N(Cc2cccnc2)c2nc3c(OC)ccc(C)c3s2)c1OC 26.8%

outcome, inactive:
COc1ccc(N(C(=O)/C=C\C(=O)Nc2ccc(Cl)cc2)C(C(=O)NCc2ccco2)c2ccc(C)cc2)cc1 (stereo unspecified), Cc1ccc(NC(=O)CN(c2ccccc2)S(=O)(=O)N(C)C)cc1Cl, C#CC(C)(C)NS(=O)(=O)c1cc(-c2nnc(Nc3ccc(C)cc3)c3ccccc23)ccc1C, NS(=O)(=O)c1ccc(CCNC(=O)CCCCCn2c(=O)[nH]c3ccccc3c2=O)cc1, COc1ccc(NC(=O)c2cn(CC(C)C)c(=O)c3cc(OC)c(OC)cc23)cc1Cl, CCc1cccc(NC(=O)CSc2ncc3c(n2)-c2ccc(Cl)cc2N(Cc2ccccc2)S3(=O)=O)c1, CCOC(=O)Cc1ccc(NC(=O)Nc2cccc(OCc3cc(=O)n4cc(C)ccc4n3)c2)cc1, Cc1nc(N2CCOCC2)c2c(C(=O)NCc3cccc(Cl)c3)c(C)oc2n1, CCc1ccc(NC(=O)C(NS(=O)(=O)c2cccs2)C(C)C)cc1 (stereo unspecified), CCCCN(C)CCNC(=O)c1ccc2c(=O)n(CCc3ccccc3)c(=O)[nH]c2c1, O=C(Nc1ccc2oc(-c3cccc4c(Br)cccc34)nc2c1)c1ccc(F)cc1, CCCN(Cc1cccs1)C(=O)Nc1cc(Cl)c(OC)cc1OC, COc1cccc(-n2c(SCC(=O)Nc3cc(C)ccc3C)nc3c(oc4ccccc43)c2=O)c1, CCn1c(=O)n(-c2ccc(C)c(F)c2)c(=O)c2sc3ccccc3c21, CCc1ccc(-n2c(=O)c3c4c(sc3n(CC(=O)NCCCOC)c2=O)CCCC4)cc1, O=C(NCCc1cccs1)c1ccc(Cn2c(SCc3ccc(F)cc3)nc3cccnc32)cc1, COc1cccc(NC(=O)c2sc3nc(C)c(C(=O)Nc4ccc(C)cc4C)c(-c4ccccc4Cl)c3c2N)c1, CCc1noc(-c2ccc(NCc3ccccc3)c([N+](=O)[O-])c2)n1, Cc1ccc(NC(=O)CCCn2c(=O)c3cccn3c3ccccc32)c(C)c1, COc1ccc(F)cc1S(=O)(=O)NCC(c1ccco1)S(=O)(=O)c1ccc(F)cc1 (stereo unspecified), COc1ccc(Cn2c(C(=O)O)c(CNCCc3ccco3)c3ccc(C)cc32)cc1, Cc1ccccc1N(C)S(=O)(=O)c1nnc(NC(=O)c2ccccc2F)s1, CCOC(=O)Cn1c(=O)n(C2CCCCC2)c2nc(-c3ccc(CC)cc3)nc(C(N)=O)c21, CN(c1ccccc1)S(=O)(=O)c1nnc(NC(=O)C2CCCCC2)s1, Cc1ccc(S(=O)(=O)NCCc2csc(-c3ccc(Cl)cc3)n2)cc1, O=C(CSc1nc2ccccc2nc1Cc1ccc(Cl)cc1)N1CCCc2ccccc21, COc1ccc(NCc2cc3cc4c(cc3n(CC(=O)Nc3ccc(F)cc3)c2=O)OCCO4)cc1, CCOC(=O)c1c(C)c(C(=O)NCc2ccc(OC)cc2)c(C)n1CC

— PubChem BioAssay AID1963576 (National Center for Advancing Translational Sciences (NCATS), 2024)
